Among all 410,000 compounds or so, about 260 (0.063%) were called active. Inconclusive results, whose numbers are uncertain, are shown with a selection of clear calls. Calls follow the shape of the dose curve; as a rule, active = well fitted activation curve with a large enough effect; inconclusive = small, poorly fitted or top-dose-only effect; inactive = no such curve, though single readings can be large or run the other way. Potencies of inconclusive entries are left out as doubtful fits.
test: qHTS for compounds that reverse cellular toxicity of Amyloid beta (A-beta) peptide in yeast: Primary Screen; conditions: yeast expressing A-beta42, growth rescue, OD600, 48 h; growth rescue: at 46.1 µM (top of the series), 0% DMSO, 100% iron-clioquinol control; also: nearly all actives have a fitted effect of over 55% in size
In short: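 Yeast A-beta toxicity model in growth medium with pinned compounds, 48 h at 30 C; growth read as absorbance at 600 nm. Normalized to FeCl3/clioquinol equimolar mix (positive) and DMSO (negative).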
Potency is read from the fitted curve at half-maximal effect; tags tell the direction and shape of the fitted curve.

Row | SMILES | Potency | growth rescue
1 | Cc1cccc(Cc2cnc(N3C(=N)SC(C)C3=O)s2)c1 (stereo not drawn) | inconclusive [activator, partial curve, poor fit] | 
2 | Cc1c(CCC(=O)N2CCCCC2)c(=O)oc2cc3occ(C(C)(C)C)c3cc12 | inactive | 
3 | O=C(O)c1ccc(/C=N/Nc2cccc(C(F)(F)F)c2)cc1 | inactive | 
4 | CC(NC(=O)CSc1nc2ccc(N)cc2s1)c1ccccc1 (stereo not drawn) | inconclusive [activator, single point] | 
5 | Cc1c(C(=O)Nc2cccc(-c3nc4ccccc4s3)c2)oc2ccccc12 | inactive | 
6 | O=C(CSC(=S)N1CCCC1)c1cc(Br)cc(Br)c1O | inconclusive [activator, partial curve, poor fit] | 
7 | CC1(C)C2CC=C(/C=N/NC(=S)NCCc3ccccc3)C1C2 (stereo not drawn) | inconclusive [activator, single point] | 
8 | CC(Oc1ccccc1)C(=O)OCC(=O)Nc1ccc2c(c1)OCO2 (stereo not drawn) | inconclusive [activator, full curve] | 
9 | COc1cc(C(=O)ONC(=O)c2ccc(OC(F)F)cc2)cc(OC)c1OC | inconclusive [activator, partial curve, poor fit] | 
10 | Cc1c(Cl)cccc1NC(=S)NCCc1ccc(F)cc1 | inconclusive [activator, partial curve, poor fit] | 
11 | N/C(CSc1ccc(Cl)cc1)=N\S(=O)(=O)c1ccc(Cl)cc1 | inconclusive [activator, single point] | 
12 | CCc1c(C(=O)NNC(=S)NC2CCCCC2)csc1C | inconclusive [activator, partial curve] | 
13 | CCOC(=O)C(=O)Nc1nccs1 | inactive | 
14 | CCOC(=O)C1CCN(CC(=O)N2CCc3ccccc32)CC1 |  | inconclusive: 7.46% [activator]
15 | CCC1CN(S(=O)(=O)c2cc(-c3onc(C)c3C)ccc2C)c2cc(Cl)ccc2O1 (stereo not drawn) | inactive | 
16 | Cn1c(-c2ccc(Br)cc2)cnc1NCc1ccc(C#N)cc1 | inconclusive [activator, single point] | 
17 | COc1ccc(NC(=O)C(c2cc3ccccc3o2)n2c(=O)c(-c3cc4ccccc4[nH]3)nc3ccccc32)cc1 (stereo not drawn) | inconclusive [activator, partial curve] | 
18 | COc1ccc(CCN2C(=O)c3[nH]nc(-c4ccccc4O)c3C2c2cccc(Cl)c2)cc1 (stereo not drawn) | inconclusive [activator, full curve, poor fit] | 
19 | Cc1cccc(CC2CC(=O)N(c3ccc(C)cc3Br)C2=O)c1 (stereo not drawn) | inconclusive [activator, single point] | 
20 | Cc1ccc(-c2csc(NC(=O)c3c(C)noc3C)n2)cc1C | inconclusive [activator, partial curve, poor fit] | 
21 | NC(=S)N/N=C\c1c2ccccc2cc2ccccc12 | inconclusive [activator, partial curve, poor fit] | 
22 | CC1CCN(C(=S)SCc2nc(N)nc(Nc3ccccc3)n2)CC1 | active: 22.4 µM | 
23 | COc1ccc(C2C(C#N)=C(N)N(Nc3ccccc3)C3=C2C(=O)CC(C)(C)C3)cc1C (stereo not drawn) | inconclusive [activator, full curve] | 
24 | C[C@H](NC(=O)N1CCn2c1nc1ccccc12)C(=O)NCc1ccc(F)cc1 | inactive | 
25 | CC(=O)Nc1ccc(-c2ccnc3c2CC(C)(C(=O)NCc2ccncc2)O3)cc1 (stereo not drawn) | inactive | 

Row | SMILES | Potency | growth rescue
26 | COc1ccc(C(=O)/C=C/Nc2ccc(S(N)(=O)=O)cc2)cc1OC | inactive | 
27 | CC1CCN(c2ccccc2NC(=S)NC(=O)C(C)(C)C)CC1 | active: 12.6 µM | 
28 | Cc1ccc(NC(=O)c2ccc(NC(=O)c3ccccc3)cc2)cc1C | inactive | 
29 | COc1cccc(C(=O)NC(=S)NCc2ccco2)c1 | inconclusive [activator, partial curve, poor fit] | 
30 | Cc1cccc(CCNC(=O)CN(c2ccc(C(C)C)cc2)S(=O)(=O)c2c(C)nn(C)c2C)c1 | inactive | 
31 | CCc1ccccc1N1CC(c2nc3ccccc3n2CCOc2ccc(Cl)c(C)c2)CC1=O (stereo not drawn) | inactive | 
32 | CC(O)(c1cccc(F)c1)c1nc(-c2cccc3cccnc23)cs1 (stereo not drawn) | inconclusive [activator, single point] | 
33 | CN(Cc1ccccc1)S(=O)(=O)c1nnc(NC(=O)c2ccccc2Cl)s1 | inactive | 
34 | CCOc1ccc(CN(C)C(=O)c2cccnc2OCC)cc1OC | inconclusive [activator, partial curve] | 
35 | CCOC(=O)C(C)N1N=C(/C=C/c2ccc(OC)cc2)CCC1=O (stereo not drawn) | inconclusive [activator, full curve, poor fit] | 
36 | Cc1cc(/C=N/NC(N)=S)c(C)n1-c1ccc(Cl)cc1 | active: 10 µM | 
37 | C[C@@]12C(=O)Nc3ccc(Br)cc3C(=O)N1[C@H]1c3ccccc3OC[C@@H]1[C@@H]2c1ccccc1 |  | inconclusive: -74.2% [activator]
38 | Brc1cccc(-c2nnc(SCc3ccon3)n2-c2ccccc2)c1 | inactive | 
39 | Cc1ccc(OCC(=O)N(Cc2nc(-c3ccccc3)no2)C(C)C)cc1C | inconclusive [activator, partial curve, poor fit] | 
40 | Cc1ccc(-c2n[nH]c3c2CCC3)cc1 | inconclusive [activator, partial curve, poor fit] | 
41 | Cc1ccc(S(=O)(=O)N(C)C)cc1NC(=S)NC12CC3CC(CC(C3)C1)C2 | inconclusive [activator, single point] | 
42 | Nc1cccc(-c2nc3ncccc3o2)c1 | inactive | 
43 | CCOc1ccc(-n2c(C)cc(C(=O)NS(=O)(=O)c3ccc(C)cc3)c2C)cc1 | inconclusive [activator, partial curve, poor fit] | 
44 | O=C(Nc1cc(Cl)ccc1Cl)C1Cc2ccccc2O/C1=N\O (stereo not drawn) | inconclusive [activator, single point] | 
45 | COc1cc(NC(=O)c2ccno2)cc(C(=O)Nc2cccc(C(F)(F)F)c2)c1 | inactive | 
46 | S=C(NCc1ccccn1)Nc1ccc(Cl)cc1 | inconclusive [activator, single point] | 
47 | COc1ccc(-c2cc3ccc(O)c(CN4CCN(C)CC4)c3oc2=O)cc1OC | inactive | 
48 | Cc1ccc(-c2cc(N)n(-c3ccccc3)n2)cc1 | inactive | 
49 | Cc1ccccc1OCC(=O)Nc1ccc2nc(SCC(=O)N3CCCC3)sc2c1 | inactive | 
50 | C[C@H](NC(=O)OC(C)(C)C)C(=O)N/N=C/C1=Cc2ccccc2OC1 | inactive | 

Row | SMILES | Potency | growth rescue
51 | O=C(c1cccc(S(=O)(=O)N2CCN(c3ccc(F)cc3)CC2)c1)N1CCCCCCC1 | inactive | 
52 | NS(=O)(=O)c1ccc(CCNCC(=O)N2CCC(Cc3ccccc3)CC2)cc1 | inconclusive [activator, single point] | 
53 | COc1ccc(NC(=S)N2CCC(Cc3ccccc3)CC2)cc1 | inconclusive [activator, partial curve, poor fit] | 
54 | COc1ccc(C(=O)Nc2ccc(S(=O)(=O)Nc3ncccn3)cc2)cc1OC | inconclusive [activator, single point] | 
55 | COc1ccc(NC(=O)/C=C/c2cc(Br)ccc2OC)cc1 | inactive | 
56 | Cc1ccc(/S(C)=N/S(=O)(=O)c2ccc(C)cc2)cc1 (stereo not drawn) | inconclusive [activator, partial curve, poor fit] | 
57 | CCC(=O)N1c2ccccc2CC1C(=O)NCCN1CCN(c2cc(Cl)ccc2C)CC1 (stereo not drawn) | inactive | 
58 | CC1CCCC(NC(=O)CN2CCN(Cc3ccc(Cl)cc3)C2=O)C1C (stereo not drawn) | inconclusive [activator, full curve] | 
59 | CC1CCCC(C)N1C(=O)CSc1nc2ccccc2s1 (stereo not drawn) | inactive | 
60 | Cc1cc(C)nc(Nc2nc(C(N)Cc3ccccc3)cs2)n1 (stereo not drawn) | inconclusive [activator, single point] | 
61 | COc1ccc2sc(N(Cc3cccnc3)C(=O)CCc3ccccc3)nc2c1 | inactive | 
62 | Cc1onc(-c2ccccc2)c1C(=O)NNC(=S)NC(=O)c1ccc(F)cc1 | inconclusive [activator, full curve, poor fit] | 
63 | CCCOc1ccc(CNC(=S)Nc2ccccc2)cc1Cl | active: 11.2 µM | 
64 | O=C(/C=C/c1ccco1)NC(=S)NNC(=O)c1ccco1 | inconclusive [activator, full curve] | 
65 | O=C(Oc1ccccc1F)c1nc(SCc2ccc(F)cc2)ncc1Cl | inactive | 
66 | COc1cccc(C(=O)CC(=O)C(=O)Nc2ccc([N+](=O)[O-])cc2C)c1 | inconclusive [activator, partial curve, poor fit] | 
67 | O=C(CC1CC2CCC1C2)Nc1nc(-c2ccccn2)cs1 (stereo not drawn) | active: 14.1 µM | 
68 | COc1cc2[nH]c(=O)n(CCC(=O)N3CCc4ccccc4C3)c(=O)c2cc1OC | inactive | 
69 | CCc1ccccc1OCC(=O)Nc1nc(-c2cccnc2)cs1 | inconclusive [activator, single point] | 
70 | COC(=O)[C@H](C)NC(=O)Nc1ccc(Oc2ccccc2)cc1 |  | inconclusive: -14.1% [activator]
71 | COc1ccc(N(Cc2cccs2)C(=O)c2ccc(OC)c(Cl)c2)cc1 | inconclusive [activator, partial curve] | 
72 | Cc1cccc(-c2n[nH]c(=S)n2/N=C/c2cccs2)c1 | inconclusive [activator, single point] | 
73 | NC(=S)NN=Cc1nccc2ccccc12 | inconclusive [activator, single point] | 

From PubChem BioAssay AID1347071 (National Center for Advancing Translational Sciences (NCATS), 2019)
